Among the data in paper PMC11538714 are binding values, retold here.

Protein sequences, listed by entry. Tags and fused reporters are not part of them.
UniProt Q8NEB9: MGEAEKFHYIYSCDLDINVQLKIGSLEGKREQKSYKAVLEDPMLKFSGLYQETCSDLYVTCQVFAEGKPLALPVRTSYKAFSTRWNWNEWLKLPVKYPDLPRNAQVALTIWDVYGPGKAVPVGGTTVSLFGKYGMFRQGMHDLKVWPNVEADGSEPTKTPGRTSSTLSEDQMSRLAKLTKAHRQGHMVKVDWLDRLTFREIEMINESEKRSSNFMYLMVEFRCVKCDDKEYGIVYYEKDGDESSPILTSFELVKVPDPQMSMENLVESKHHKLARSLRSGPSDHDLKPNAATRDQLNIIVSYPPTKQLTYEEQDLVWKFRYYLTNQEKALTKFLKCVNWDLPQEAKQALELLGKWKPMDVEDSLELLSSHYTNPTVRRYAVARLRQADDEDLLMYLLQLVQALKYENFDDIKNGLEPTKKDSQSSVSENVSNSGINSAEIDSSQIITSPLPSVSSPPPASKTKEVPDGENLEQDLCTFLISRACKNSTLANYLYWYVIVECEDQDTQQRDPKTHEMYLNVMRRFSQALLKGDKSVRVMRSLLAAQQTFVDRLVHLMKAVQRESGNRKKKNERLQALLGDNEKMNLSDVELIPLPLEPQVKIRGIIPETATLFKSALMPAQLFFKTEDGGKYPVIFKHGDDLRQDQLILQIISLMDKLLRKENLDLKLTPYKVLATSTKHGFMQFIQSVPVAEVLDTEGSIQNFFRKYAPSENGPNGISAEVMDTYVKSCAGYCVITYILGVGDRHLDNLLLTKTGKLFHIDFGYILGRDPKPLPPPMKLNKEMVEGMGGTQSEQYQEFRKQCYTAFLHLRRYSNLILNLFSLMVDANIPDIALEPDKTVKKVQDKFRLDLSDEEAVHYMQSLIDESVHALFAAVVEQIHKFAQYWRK
UniProt Q92609: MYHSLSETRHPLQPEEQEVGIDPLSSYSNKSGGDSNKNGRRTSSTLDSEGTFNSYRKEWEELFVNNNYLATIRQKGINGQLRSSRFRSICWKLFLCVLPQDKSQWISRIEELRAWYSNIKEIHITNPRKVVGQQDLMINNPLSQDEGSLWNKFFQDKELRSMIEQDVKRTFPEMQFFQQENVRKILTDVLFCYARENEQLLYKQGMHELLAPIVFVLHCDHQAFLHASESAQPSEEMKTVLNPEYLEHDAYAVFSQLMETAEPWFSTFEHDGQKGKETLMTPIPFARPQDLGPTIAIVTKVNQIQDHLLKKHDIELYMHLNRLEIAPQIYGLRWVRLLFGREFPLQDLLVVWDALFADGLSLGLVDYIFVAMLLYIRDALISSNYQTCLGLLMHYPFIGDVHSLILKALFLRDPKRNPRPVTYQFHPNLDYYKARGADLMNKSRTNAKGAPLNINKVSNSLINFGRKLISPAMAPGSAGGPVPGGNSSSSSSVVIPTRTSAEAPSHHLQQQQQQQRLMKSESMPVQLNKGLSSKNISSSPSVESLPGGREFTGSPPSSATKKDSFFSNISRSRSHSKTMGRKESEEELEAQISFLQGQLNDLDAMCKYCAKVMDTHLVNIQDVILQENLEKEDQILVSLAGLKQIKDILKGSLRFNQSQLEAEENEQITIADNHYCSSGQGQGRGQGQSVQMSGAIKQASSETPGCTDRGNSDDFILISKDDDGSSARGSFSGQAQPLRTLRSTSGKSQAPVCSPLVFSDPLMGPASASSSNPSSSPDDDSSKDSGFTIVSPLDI
UniProt Q6PF93: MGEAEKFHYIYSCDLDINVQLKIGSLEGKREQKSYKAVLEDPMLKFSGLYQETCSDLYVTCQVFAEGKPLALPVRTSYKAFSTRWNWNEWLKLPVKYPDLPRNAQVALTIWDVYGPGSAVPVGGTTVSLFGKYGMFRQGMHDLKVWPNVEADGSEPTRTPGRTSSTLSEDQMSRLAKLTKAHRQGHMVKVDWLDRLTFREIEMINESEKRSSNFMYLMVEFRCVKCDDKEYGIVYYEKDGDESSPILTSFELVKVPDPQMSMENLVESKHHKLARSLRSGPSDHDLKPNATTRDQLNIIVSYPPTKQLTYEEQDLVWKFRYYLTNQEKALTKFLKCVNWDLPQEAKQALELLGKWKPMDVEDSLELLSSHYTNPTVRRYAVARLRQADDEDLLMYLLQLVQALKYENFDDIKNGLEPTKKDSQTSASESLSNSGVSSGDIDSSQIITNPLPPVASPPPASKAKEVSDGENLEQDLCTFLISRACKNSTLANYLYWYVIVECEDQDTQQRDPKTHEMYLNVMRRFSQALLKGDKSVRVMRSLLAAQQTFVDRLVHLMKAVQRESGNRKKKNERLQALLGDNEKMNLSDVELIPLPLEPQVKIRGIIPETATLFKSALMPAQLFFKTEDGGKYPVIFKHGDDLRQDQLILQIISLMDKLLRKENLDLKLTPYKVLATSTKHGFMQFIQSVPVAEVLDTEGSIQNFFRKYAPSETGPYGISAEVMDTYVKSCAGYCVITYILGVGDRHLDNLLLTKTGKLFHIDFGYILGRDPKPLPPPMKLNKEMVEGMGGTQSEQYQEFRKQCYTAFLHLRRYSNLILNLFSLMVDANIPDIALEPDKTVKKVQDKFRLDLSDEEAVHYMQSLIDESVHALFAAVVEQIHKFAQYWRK

Assay [1] has as its target Vacuolar protein sorting 34 (VPS34), endogenous in 293T cells (human (endogenous in 293T)) (UniProt Q8NEB9). Kind of assay: co-IP; endogenous protein interactions in 293T cells; RIPA lysate; antibody overnight at 4 °C, protein-A/G beads; Western blot (Figure S5f,g).
Assay [2] deals with TBC1 domain family member 5 (TBC1D5), endogenous in 293T cells (human (endogenous in 293T)) (UniProt Q92609). The experiment in a line: co-IP; endogenous proteins in control and Vps34 knockout (CRISPR-Cas9) 293T cells; RIPA lysate with protease inhibitor; 0.5 µg antibody (RAB7, TBC1D5, VPS26B, VPS26A or VPS35) overnight at 4 °C, protein-A/G beads 6 h at 4 °C, washed with cold PBS; Western blot. (In western blotting, separated proteins are transferred to a membrane and probed.)

The target of assay [3] is VPS26A, endogenous in 293T cells (human (endogenous in 293T)) (UniProt O75436). Described as above.
Assay [4] deals with VPS26B, endogenous in 293T cells (human (endogenous in 293T)) (UniProt Q4G0F5). The description is as above.
For assay [5], the target named is VPS34, endogenous in mouse oocytes (mouse (endogenous in oocytes)) (UniProt Q6PF93). Kind of assay: co-IP; endogenous proteins in mouse oocytes (1600 oocytes), RIPA lysate; antibody overnight at 4 °C, protein-A/G beads; Western blot (Figure S5h).
For assay [6], the target named is VPS34-HA-GST fusion protein (UniProt Q6PF93). Kind of assay: pull-down; about 100 µg VPS34-HA-GST (or HA-GST) immobilized on 50 µL glutathione agarose; about 100 µg His-RAB7 added, overnight at 4 °C; eluted with 10 mM glutathione in PBS pH 8.0; immunoblot; both purified.
Assay [7] addresses RAS-related GTP-binding protein 7 (RAB7), endogenous in 293T cells (human (endogenous in 293T)) (UniProt P51149). The experiment in a line: co-IP; endogenous proteins in control and Vps34 knockout (CRISPR-Cas9) 293T cells; RIPA lysate with protease inhibitor; 0.5 µg antibody (RAB7, TBC1D5, VPS26B, VPS26A or VPS35) overnight at 4 °C, protein-A/G beads 6 h at 4 °C, washed with cold PBS; Western blot.

Results are given in words; binding and its absence hold for the method and conditions named. For part of these data: In cells and extracts the contact can be indirect. Some binding calls cover weakened binding; strength is not graded here.

For “RAS-related GTP-binding protein 7 (RAB7), endogenous in 293T cells (from UniProt P51149 1-207)”, the binding entry is on record as “binds” in assay [1], “binds” in assay [2], “binds” in assay [3] and “no binding” in assay [4]. As to “RAB7, endogenous in mouse oocytes (from UniProt P51150 1-207)”, the binding entry in assay [5] is reported as “binds”. “TBC1 domain family member 5 (TBC1D5), endogenous in 293T cells (from UniProt Q92609 1-795)”: the binding result in assay [4] is recorded as “no binding”. With “RAB7-His protein (from UniProt P51150 1-207)”, the binding result in assay [6] is listed as “binds”. Regarding “VPS26A, endogenous in 293T cells (from UniProt O75436 1-327)”, the binding result is listed as “binds” in assay [7] and “no binding” in assay [4].
